These results are taken from PubChem BioAssay AID493208 (National Center for Advancing Translational Sciences (NCATS), 2011).

The whole screen tested about 44,000 compounds, of which about 340 (0.77%) were called active. Another 5% or so got no clear call; they are omitted. The call rests on the fitted dose curve; in most records, active means well fitted inhibition curve with a large enough effect; inconclusive means small, poorly fitted or top-dose-only effect; inactive means flat fitted curve, though single readings scatter. This is one part of the list.
Potency means the concentration at half of the fitted maximal effect.

The test in a line: Acumen qHTS Assay for Inhibitors of the mTORC1 Signaling Pathway in MEF (Tsc2-/-, p53-/-) Cells: Sytravon. Further: nearly all actives have a fitted effect of over 50% in size.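 On activity change, negative = inhibition: plate controls were DMSO for no effect and rapamycin for full effect.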 The following applies: phospho-rpS6 immunofluorescence/PI, 24 h; series mostly up to 38.3 µM; activity change, negative = inhibition: at the top concentration. The method in brief:
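Compounds act on Tsc2-/-, p53-/- fibroblasts carrying an empty vector for 24 h before fixation and dual staining for phospho-S6 and DNA (propidium iodide). Values are percentages of cells above a rapamycin-defined pS6/PI threshold.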
(qHTS replaces the single test concentration by a dilution series.)
Take `Cc1ccc(NC(=O)C(Cc2ccccc2)n2cccc2)c(C)c1` (configuration not stated): the “activity change, negative = inhibition” value was inactive: 0.454%.

Turning to `Cc1cc(=O)n2c(C(=O)Nc3ccc(F)c(Cl)c3)c(C(=O)Nc3cccc(C)c3C)sc2n1`, the “activity change, negative = inhibition” value is inactive: 2.52%.

For the compound `Cc1cc(Nc2ccc(C(C)C)cc2)nc(-n2nc(C)cc2C)n1`, the “activity change, negative = inhibition” value is inactive: -24.4%.

Consider `COc1ccc(NC(=O)CN(C)S(=O)(=O)c2ccc3c(c2)CCCN3C(C)=O)cc1Cl`, for which the “activity change, negative = inhibition” value is inactive: -9.56%.

As to `CCCCCn1c(=N)c(S(=O)(=O)c2ccccc2)cc2c(=O)n3cccc(C)c3nc21`, the “activity change, negative = inhibition” value is inactive: -12.6%.

In the case of `Cc1cccc2sc(N(Cc3cccnc3)C(=O)Cc3ccccc3)nc12`, the “activity change, negative = inhibition” value was inactive: -3.03%.

As for `Cc1nnc(SCc2ccccc2Cl)c2cc3occc3n12`, the “activity change, negative = inhibition” value is inactive: 3.88%.

Regarding `CC(C)Oc1cccc(C(=O)Nc2ccc(-c3nc4cc(Cl)cc(Cl)c4o3)cc2)c1`, the “activity change, negative = inhibition” value is inactive: -0.271%.

Consider `COc1cc(-c2noc(-c3ccc(NC4CCCCC4)c([N+](=O)[O-])c3)n2)cc(OC)c1OC`, for which the “activity change, negative = inhibition” value was inactive: 0.551%.

Turning to `CCN(CC)C(=O)Cn1c(=O)n(CCCCCC(=O)NCc2ccccc2)c(=O)c2sccc21`, the “activity change, negative = inhibition” value is inactive: 0.499%.

For the compound `COc1ccccc1C(=O)Nc1ccccc1SCc1cc(=O)c2ccccc2[nH]1`, the “activity change, negative = inhibition” value is inactive: -16.3%.

With `O=C(c1ccc2c(c1)N(Cc1ccccc1F)C(=O)c1ccccc1S2=O)N1CCCCC1` (configuration not stated), the “activity change, negative = inhibition” value was inactive: 3.34%.

For `O=C(NC1CC(=O)N(c2ccc(F)cc2)C1)C1CCCCC1` (configuration not stated), the “activity change, negative = inhibition” value is inactive: -7.57%.

For `CCOc1cc(/C=C(\C#N)C(=O)Nc2ccccc2C)ccc1OCc1cc(=O)n2nc(CC)sc2n1`, the “activity change, negative = inhibition” value is inactive: -15%.

Regarding `Cc1ccc(NC(=O)C2CCN(c3nnc(-n4cccc4)s3)CC2)cc1Cl`, the “activity change, negative = inhibition” value was inactive: -0.0984%.

With `CCOc1ccc(-c2csc(-c3nc(-c4ccc(Br)s4)cs3)n2)cc1`, the “activity change, negative = inhibition” value was inactive: 7.59%.

With `COc1cccc(C(c2c(O)cc(C)n(Cc3ccco3)c2=O)N2CCC(C)CC2)c1` (configuration not stated), the “activity change, negative = inhibition” value was inactive: 4.73%.

For the compound `COc1ccc(OC)c2sc(N(Cc3cccnc3)C(=O)c3ccc(C(C)=O)cc3)nc12`, the “activity change, negative = inhibition” value is inactive: -5.68%.

`COc1ccc(-c2nc(C)c(CCNC(=O)c3cc(OC)c(OC)c(OC)c3)s2)cc1OC`: the “activity change, negative = inhibition” value was inactive: 1.93%.

Take `O=C(NCc1ccccc1)c1cc2ccccc2o1`: the “activity change, negative = inhibition” value was inactive: 5.08%.

For `CC(C)CCNC(=O)c1cccc(-n2cnc3cccnc32)c1`, the “activity change, negative = inhibition” value is inactive: -5.13%.

`Cc1ccc(C(=O)COC(=O)c2cccc(NC(=O)c3ccc(Br)cc3)c2)cc1`: the “activity change, negative = inhibition” value was inactive: -19.7%.

Take `Cc1ccc(C)c(N2CCN(S(=O)(=O)c3ccc4c(c3)CC(=O)N4C)CC2)c1`: the “activity change, negative = inhibition” value was inactive: 2.01%.

Regarding `Cc1ccc2c(c1)-c1c(c(C(=O)NCCc3ccccc3)nn1C)CS2`, the “activity change, negative = inhibition” value was inactive: -10.3%.

With `Cc1cccc(CS(=O)(=O)Cc2ccc(C(=O)NC(C)c3ccccc3)o2)c1` (configuration not stated), the “activity change, negative = inhibition” value is inactive: 4.58%.

Consider `COc1cccc(CNC(=O)Cn2c(SCC(=O)Nc3ccc(F)cc3)nc3ccccc32)c1`, for which the “activity change, negative = inhibition” value was inactive: -1.13%.

In the case of `CCCCN(CC)CCCNC(=O)C1CCN(c2nc3ccc(CC)cc3s2)CC1`, the Potency was active: 7.36 µM.

As for `COc1ccc(CCC(=O)NCc2nc3cccnc3n2Cc2ccc(C)cc2)cc1`, the “activity change, negative = inhibition” value is inactive: 2.77%.

Regarding `CCOCCCNC(=O)c1[nH]c2cc(OC)ccc2c1Sc1ccccc1`, the “activity change, negative = inhibition” value is inactive: 0.573%.

`Cc1cccc(N(CC(=O)Nc2cccc(Cl)c2C)S(C)(=O)=O)c1C`: the “activity change, negative = inhibition” value was inactive: -14.3%.

Consider `Cc1ccc(S(=O)(=O)NCC(c2ccco2)N2CCN(c3ccccc3F)CC2)cc1` (configuration not stated), for which the “activity change, negative = inhibition” value is inactive: -3.64%.

In the case of `COC(=O)c1c(NC(=O)c2nc(SCc3ccc(C)cc3)ncc2Cl)sc2c1CCCC2`, the “activity change, negative = inhibition” value was inactive: 0.0534%.

For the compound `CCCCCNS(=O)(=O)c1ccc(N2CCCCS2(=O)=O)cc1`, the “activity change, negative = inhibition” value was inactive: -32.7%.

Regarding `COc1ccc(NC(=O)Cn2c(=O)n(CCC(=O)NCCc3ccc(OC)c(OC)c3)c(=O)c3ccccc32)cc1Cl`, the “activity change, negative = inhibition” value was inactive: 1.41%.

For `CCCN1C(=O)CN(C2CCCCC2)C(=O)C1c1ccc(OC)c(OC)c1` (configuration not stated), the “activity change, negative = inhibition” value was inactive: 10.2%.

For the compound `O=C(NC1CC1)c1ccc(Cn2c(SCc3ccccc3F)nc3cccnc32)cc1`, the “activity change, negative = inhibition” value was inactive: -11.7%.

With `COc1cccc([C@@H]2Nc3ccc(C(=O)O)cc3[C@@H]3C=CC[C@@H]32)c1OC`, the “activity change, negative = inhibition” value was inactive: -2.99%.

Turning to `Cc1ccc2c(=O)cc(C(=O)Nc3ccc(S(=O)(=O)Nc4onc(C)c4C)cc3)oc2c1`, the “activity change, negative = inhibition” value is inactive: -2.56%.

As to `Cc1cccc(-n2ncc(C(=O)N3CCN(C(=O)c4ccco4)CC3)c2C2CCN(C(=O)OC(C)(C)C)CC2)c1`, the “activity change, negative = inhibition” value is inactive: 5.36%.

For the compound `CC(NC(=O)C(=O)Nc1c2c(nn1-c1ccccc1)CSC2)c1ccccc1` (configuration not stated), the “activity change, negative = inhibition” value is inactive: -5.98%.

Regarding `Cc1ccc2c(c1)c(=O)c(C(=O)c1ccncc1)cn2CC(=O)Nc1ccc(C(C)C)cc1`, the “activity change, negative = inhibition” value is inactive: 1.88%.

On to `COc1cccc(NC(=O)Cn2nc3c4ccccc4n(Cc4cccc(F)c4)cc-3c2=O)c1`, for which the “activity change, negative = inhibition” value is inactive: -5.06%.

Consider `Cc1nn(CCC(=O)NCc2ccc(N(C)C)cc2)c(=O)c2nn(-c3ccccc3)c(C)c12`, for which the “activity change, negative = inhibition” value is inactive: 0.917%.

For the compound `Cc1ccc(N2CC(NC(=O)c3ccc(Br)o3)CC2=O)cc1C` (configuration not stated), the “activity change, negative = inhibition” value was inactive: 0.166%.

Consider `CC(C)(C)c1ccc(C(=O)Nc2ccc(-c3nc4cc(Cl)ccc4o3)cc2)cc1`, for which the “activity change, negative = inhibition” value is inactive: 5.69%.

Consider `CCOc1ccc(NCc2cccn2-c2nnc(N3CCC(C(=O)NCc4ccc(C)cc4)CC3)s2)cc1`, for which the “activity change, negative = inhibition” value was inactive: 3.76%.

As to `Cc1nnc(N2CCN(c3ccccc3F)CC2)c2c1nnn2Cc1ccccc1Cl`, the “activity change, negative = inhibition” value was inactive: 3.03%.
